Reference: PMC4336329 (PLoS ONE, 2015)
Screen size: about 310,000 compounds; about 14,000 (4.5%) showed an effect of 50% or more. The effect is printed as a negative number. The list shows a part of the results.

target: human ether-à-go-go-related gene (hERG) potassium channel (human, UniProt Q12809); assay: primary screen, population patch clamp on CHO cells stably expressing hERG
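Also: peak tail current of the secondary pulse compared with the same well before compound.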

Sequence of human ether-à-go-go-related gene (hERG) potassium channel (Q12809 whole entry, looked up): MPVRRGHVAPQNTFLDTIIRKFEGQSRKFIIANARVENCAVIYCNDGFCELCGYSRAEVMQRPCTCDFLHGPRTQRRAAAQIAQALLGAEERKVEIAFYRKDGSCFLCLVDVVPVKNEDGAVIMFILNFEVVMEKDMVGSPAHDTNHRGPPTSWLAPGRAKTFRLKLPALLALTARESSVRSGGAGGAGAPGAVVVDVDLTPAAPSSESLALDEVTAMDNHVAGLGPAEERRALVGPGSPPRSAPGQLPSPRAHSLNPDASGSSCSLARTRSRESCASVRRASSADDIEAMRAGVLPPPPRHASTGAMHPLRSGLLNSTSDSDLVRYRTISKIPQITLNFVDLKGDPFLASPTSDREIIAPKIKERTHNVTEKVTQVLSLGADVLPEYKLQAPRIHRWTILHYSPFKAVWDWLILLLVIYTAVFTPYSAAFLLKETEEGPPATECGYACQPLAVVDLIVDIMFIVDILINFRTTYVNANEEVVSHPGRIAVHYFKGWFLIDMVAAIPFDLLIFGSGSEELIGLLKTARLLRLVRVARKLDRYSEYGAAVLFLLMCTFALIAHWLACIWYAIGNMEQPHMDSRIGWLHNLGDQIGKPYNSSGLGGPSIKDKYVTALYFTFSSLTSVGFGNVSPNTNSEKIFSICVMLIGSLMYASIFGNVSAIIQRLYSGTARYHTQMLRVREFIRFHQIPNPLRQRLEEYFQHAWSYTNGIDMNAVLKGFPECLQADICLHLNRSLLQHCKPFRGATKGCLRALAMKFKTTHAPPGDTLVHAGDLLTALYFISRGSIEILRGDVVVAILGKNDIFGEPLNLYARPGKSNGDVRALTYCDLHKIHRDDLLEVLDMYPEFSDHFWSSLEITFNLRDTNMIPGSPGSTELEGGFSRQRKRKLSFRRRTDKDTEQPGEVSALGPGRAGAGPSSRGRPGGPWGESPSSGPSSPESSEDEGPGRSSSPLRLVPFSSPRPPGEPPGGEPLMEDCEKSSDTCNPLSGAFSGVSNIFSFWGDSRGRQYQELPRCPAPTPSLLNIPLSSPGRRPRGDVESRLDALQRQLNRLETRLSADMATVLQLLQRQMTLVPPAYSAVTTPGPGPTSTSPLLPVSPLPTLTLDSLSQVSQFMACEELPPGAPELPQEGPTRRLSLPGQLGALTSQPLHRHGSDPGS

Structure (SMILES) | hERG current change (%, negative = inhibition) at 10uM
O=C(O)c1cc(S(=O)(=O)N(Cc2ccccc2)c2ccccc2Cl)ccc1Cl | 18.2%
Cc1cccc(-n2c(O)cnc2Nc2nc(C)cc(C)n2)c1 | 3.06%
O=C(CSc1nc2ccccc2[nH]1)Nc1ccc(F)c(F)c1 | 2.2%
CCOc1cc(C(=O)OCC(=O)c2cc(C)n(CC3CCCO3)c2C)ccc1OCC(=O)N1CCOCC1 (stereo not drawn) | 31.5%
CC(Oc1ccc(S(=O)(=O)N2CCCC2)cc1[N+](=O)[O-])C(=O)NC1(C#N)CCCCC1 (stereo not drawn) | -18.1%
CCc1nc2oc3ccccc3c(=O)c2c(=O)n1-c1ccc(C)cc1 | -2.95%
CC(C)NS(=O)(=O)c1ccc(NCCCn2ccnc2)c([N+](=O)[O-])c1 | -1.68%
CC(C)(O)C#Cc1ccc(C(=O)NCc2cccs2)s1 | -8.15%
N#Cc1ccc(Oc2c(Cl)cncc2Cl)cc1 | -39.9%
CC(C)(c1ccccc1)c1ccc(OCCN)cc1.Cl | -20.2%
O=C(COC(=O)c1ccccc1Cc1ccccc1)NC1CCS(=O)(=O)C1 (stereo not drawn) | -3.16%
O=C(CN(c1ccc(Cl)cc1)S(=O)(=O)c1ccccc1)N/N=C/c1ccco1 | -21.2%
CCCCCC1CC(=O)C=C(C)C1C(=O)OC (stereo not drawn) | -3.74%
CC(C)c1ccc(/C=N/NC(=O)CC(=O)NC2CCCCC2)cc1 | 10.2%
O=C(OCC(=O)N1CCCc2ccccc21)c1cccc(S(=O)(=O)N2CCOCC2)c1 | 1.21%
CO/N=C/CC(=O)Nc1ccc(F)cc1F | 13.3%
C=CCc1cccc2cc(C(=O)Nc3ccc(S(=O)(=O)Nc4nnc(CC)s4)cc3)c(=O)oc12 | -15.3%
O=Cc1c(Nc2cccc(C(F)(F)F)c2)nc2ccccn2c1=O | -8.04%
CC(O)CNc1ccc(-c2nn(C)c(=O)c3ccccc23)cc1[N+](=O)[O-] (stereo not drawn) | -0.657%
CCCn1c(SCC(=O)Nc2nnc(C)s2)nnc1-c1ccoc1C | 3.4%
O=[N+]([O-])c1ccccc1S(=O)(=O)N(CC1CO1)c1ccccc1 (stereo not drawn) | 18.4%
COc1ccccc1CNC(=S)NCCc1ccccc1 | -0.0599%

Structure (SMILES) | hERG current change (%, negative = inhibition) at 10uM
O=C(Nc1ccccc1)Nc1nccs1 | -0.868%
O=C1c2ccc(Oc3ccc4c(c3)C(=O)N(CCCCO)C4=O)cc2C(=O)N1CCCCO | -24.1%
COc1ccc(CC(NC(C)=O)C(=O)NC2CCN(C(=O)c3cc(OC)c(OC)c(OC)c3)CC2)cc1 (stereo not drawn) | 14.5%
O=C(O)c1ccc2c(c1)C(=O)/C(=C/c1ccccc1)C2=O | 27.4%
CCOC(=O)c1ccc(Nc2nc(C)nc3c2nnn3Cc2ccccc2)cc1 | 9.59%
COC(=O)N/N=C(\C)c1ccccc1OC(F)F | 1.52%
O=C(NC1CC2CCCC(C1)N2C(=O)Nc1ccccc1)c1ccccc1 (stereo not drawn) | 6.05%
CCn1nnnc1SCC(=O)Nc1ccc(F)cc1 | 15.1%
COc1ccc(C2C(C#N)=C(C)NC(C)=C2C(=O)OC(C)C)c(OC)c1 (stereo not drawn) | -4.94%
CS(=O)(=O)c1ccccc1C(=O)NCCC(c1ccccc1)c1ccccc1 | -51.9%
Cc1ccc(S(=O)(=O)N2CCOC2CNC(=O)C(=O)NCc2ccccn2)cc1 (stereo not drawn) | 0.156%
Cc1cc(C(=O)Nc2sc3c(c2C#N)CCCC3)no1 | 7.07%
O=C(NCc1ccccc1)C(=O)NCC1OCCN1C(=O)c1ccc(Cl)cc1 (stereo not drawn) | -21.3%
Cc1nn(C)cc1CNC(=O)c1ccc(Br)o1 | 4.51%
O=C(Nc1ccc(-c2cnco2)cc1)c1ccc(Cl)cc1 | 10.8%
CCOC(=O)c1c(-c2cccc([N+](=O)[O-])c2)csc1NC(=O)C1CCCCC1 | 22.9%
COc1cccc(NC(=O)C(=O)NCCC2CCCCN2S(=O)(=O)c2cccs2)c1 (stereo not drawn) | -20.4%
CCOC(=O)C(NC(C)=O)C(=O)Nc1c(C)cccc1C (stereo not drawn) | -2.82%
O=C(CN(Cc1ccccc1)C(=O)c1csnn1)NCCc1ccccc1 | -18.9%
CCOc1ccc2nc(C)cc(C(=O)O)c2c1 | -2.09%
Cl.N#C/C(=C/c1cc(Cl)c(O)c(Cl)c1)C(=O)N1CCCCC1 | 5.15%
CC1Cc2cc(S(=O)(=O)N3CCC(C(N)=O)CC3)ccc2N1C(=O)C1CC1 (stereo not drawn) | 17.3%

Structure (SMILES) | hERG current change (%, negative = inhibition) at 10uM
CC(=O)Nc1ccc(NC(=O)C(C)OC(=O)c2c(NC(C)=O)sc(C)c2C)cc1 (stereo not drawn) | 1.54%
COc1ccc(NC(=O)c2ccc(Cl)c(S(=O)(=O)NCC3CCCO3)c2)c(OC)c1 (stereo not drawn) | -7.25%
O=C(Nc1nnc(S(=O)(=O)N2CCCCCC2)s1)c1ccccc1Cl | -4.58%
O=C(NCc1cccnc1)c1ccc(CS(=O)(=O)Cc2ccc(Cl)cc2)o1 | -7.95%
Nc1ccccc1Oc1c(F)c(F)c(Oc2ccccc2N)c(F)c1F | 17.8%
CCC(=O)N1N=C(c2c(O)n(CCc3ccccc3)c(=O)[nH]c2=O)CC1c1ccc(OC)c(OC)c1 (stereo not drawn) | 28.1%
CCOC(=O)N1CCN(C(=O)c2ccc3c(c2)N=C(CC)c2cc(C)ccc2S3)CC1 | -3.5%
Cc1ccc(NC(=O)CN2CCOCC2)c(Br)c1 | -9.76%
CC(C)c1cc(CNC(=O)C2CCC(=O)N(CCc3ccc(Cl)cc3)C2)on1 (stereo not drawn) | -68.1%
O=C(c1ccc(Cl)c(F)c1F)N1CCOCC1 | -1.87%
O=C(/C=C/c1ccccc1)OCC(=O)N1CCCC1 | 0.185%
CCN(CC)c1ccc(/C=N/c2sc3c(c2C#N)C2CCN3CC2)c(O)c1 | 30.1%
CCOc1cc(C2C3=C(CCCC3=O)OC3=C2C(=O)CCC3)cc([N+](=O)[O-])c1O | 1.98%
COc1ccc(N2CCN(C(=O)C(OC(C)=O)c3ccccc3)CC2)cc1 (stereo not drawn) | -0.89%
COc1ccc(-n2nccc2-c2nn(-c3cccc(OC)c3)c(=O)n(C)c2=O)cc1 | 11.7%
COc1cc2ncnc(Nc3ccc4c(c3)OCO4)c2cc1OC | 14.1%
CCOC(=O)c1ccc(COC(=O)CNC(=O)CNC(=O)Cc2ccccc2)cc1 | -57.2%
COc1cc(OC)cc(C(=O)N(CCCN2C(=O)c3cccc4cccc(c34)C2=O)c2cccc(OC)c2)c1 | 9.2%
COC(=O)c1ccc(-c2cc3onc(-c4ccccc4)c3c(=O)n2C)cc1 | 7.55%
Cc1ccc(/C=N/NC(=O)CNC(=O)c2cccs2)cc1 | 4.94%
CC(C)N(C(=O)Cn1cnc2c(cnn2-c2ccccc2Cl)c1=O)C(C)C | 9.03%
COC(=O)c1ccc(CO/N=C/c2cccc([N+](=O)[O-])c2)cc1 | 22.7%

Structure (SMILES) | hERG current change (%, negative = inhibition) at 10uM
O=C(C1CCN(S(=O)(=O)c2ccc(Br)s2)CC1)N1CCCCC1 | -24.5%
CC1CCCCN1CCNC(=O)CN1C(=O)CSc2ccc(S(=O)(=O)N3CCCCC3)cc21 (stereo not drawn) | -17.6%
COc1cc(/C=N/NC(=Nc2ccc(C)cc2)c2nc3ccccc3s2)ccc1O | -28.1%
O=C(CCn1c(=O)oc2ccccc21)Nc1ccc(N2CCOCC2)cc1 | 23.8%
O=C(NCC1CCCO1)C(c1ccco1)N(Cc1ccc(F)cc1)C(=O)CN1C(=O)c2ccccc2S1(=O)=O (stereo not drawn) | -7.48%
CSCC[C@H](N)C(=O)NCC1CCC(C(=O)N[C@@H](Cc2ccccc2)C(=O)O)CC1.Cl (stereo partly drawn) | 1.22%
COc1ccc(C)cc1NC(=O)CCC(=O)Nc1nnc(C2CCCCC2)s1 | 20.9%
CCc1nnc(N/N=C/c2cc(C)c(C)cc2C)n1N | 15.1%
COc1ccnc(CSC(N)=Nc2ccccc2C(F)(F)F)c1 | -2.89%
CC(=O)N(C(C)=O)c1ncc2c([nH]c3ccccc32)c1C#N | 2.9%
Cc1ccc2c(c1)nnn2C1CCN(CC(=O)NCCc2ccccc2)CC1 | -50.4%
Cl.c1ccc(CN2CCNCC2)nc1 | 16.8%
O=C(Nc1nc2ccccc2s1)c1cccc(N2C(=O)CCC2=O)c1 | 4.28%
Cc1ccc(C(=O)NC(C)c2ccc(F)cc2)cc1 (stereo not drawn) | 17.6%
COc1ccc(-n2nc(C(N)=O)nc2-c2ccccc2)cc1 | -12.1%
COc1ccc(NS(=O)(=O)c2ccc(Cl)c(N)c2)cc1Br | -0.937%
O=C1COc2ccc(N3C(=O)C=CC3=O)cc2N1 | -16.5%
O=C1CCCN1CCCNc1ccc2nnc(CCC(=O)N3CCN(c4ccc(F)cc4)CC3)n2n1 | -0.74%
CCOC(=O)c1cnc(SCC(=O)NCc2ccco2)nc1N | -14.5%
Brc1cccc(OCCN2CCCCC2)c1.O=C(O)C(=O)O | -21.3%
Cc1ccc(S(=O)(=O)Nc2cccc(N(C)S(C)(=O)=O)c2)cc1[N+](=O)[O-] | 5.48%
